88 compounds from ChEMBL document CHEMBL1157539, “Thousands of chemical starting points for antimalarial lead identification” (Nature, 2010) can be followed below.

The full ranking holds about 13,000 compounds; the median of “IFI” is about 4, and the highest 2% start at about 17. The list shows a part of the results.

The nature of this assay: GSK_TCMDC: Inhibition Frequency Index (IFI). The number of non-kinase HTS assays where a compound showed > 50 % inhibition, expressed as a percentage of the number of such assays in which the compound was tested (-0 is zero). In kind it is functional.
As to `COc1ccccc1C1CN(CCNC(=O)c2nc(C)c[nH]2)Cc2ccccc2O1` (stereo not drawn), the IFI was -0%. The figure for `CCn1c(-c2cc(C)on2)nc2cnc(Oc3ccc(C(=O)N4CC(=O)N(C)C4C(C)(C)C)cc3)cc21` (stereo not drawn) is 7.14%; for `COc1ccc2nccc([C@@H](O)CN3CCC(NCCOc4ccccc4C#N)CC3)c2c1` it is 2.21%. The figure for `Cn1cncc1C(=O)Nc1cccc(-c2ccc(-c3nc4ccccc4[nH]3)s2)c1` is 0.9%; for `CC(C)(C)c1ccc(CN2CCCCC(NC(=O)c3cc(-c4ccccc4F)cs3)C2)cc1` (stereo not drawn) it is 5.45%. Take `COc1ccc(CNC2Cc3ccccc3C2)cc1-c1ccc(S(=O)(=O)NCCN2CCCC2)s1`: the IFI amounted to 12.8%.

`Cc1cc(-c2nc3cc(C(=N)N)ccc3[nH]2)c(C)cc1-c1nc2cc(C(=N)N)ccc2[nH]1` returned an IFI of 7.14%. The figure for `O=C(c1ccc2ccccc2n1)N1CCCc2cc(Br)ccc21` is 2.38%; for `CC[C@@H]([C@@H](Cc1cc2ccccc2s1)C(=O)N[C@@H](CCCCNC(=O)OCc1ccccc1)C(=O)Nc1ccccn1)N(O)C=O` it is 2.27%.

`COc1cc2nc(N(C)C)nc(Nc3ccc4c(cnn4Cc4ccccc4)c3)c2cc1OC` had an IFI of 10.2%. The figure for `O=S(=O)(Nc1cccc(CCN2CCC(N3CCCCC3)CC2)c1)c1ccc2c(c1)OCCO2` is 0%; for `Cn1ccnc1-c1nc2ccccn2c1NCC(=O)Nc1ccccc1N1CCCCC1` it is 1.45%; for `Cc1cc(=NN=Cc2ccc(F)cc2)c2cc(C(F)(F)F)ccc2[nH]1` it is 0.71%.

In turn, `CCCCN(CCCC)C(=N)c1cccc2c1CCCC2` displayed an IFI of 2.21%.

For `Fc1ccc(C2N=C(SCCSC3=NC(c4ccc(F)cc4)C(c4ccc(F)cc4)N3)NC2c2ccc(F)cc2)cc1` (stereo not drawn), the IFI was determined as 2.11%. In the case of `Cc1cc(N[C@@H](Cc2ccccc2)C(=O)NCCOc2ccccc2)nc(NCCc2ccc(F)cc2)n1`, the IFI was found to be 11.4%. The figure for `CC(=O)c1cccc2cc(C(=O)NC3CCC(CCN4CCc5ccc(C#N)cc5C4)CC3)[nH]c12` (stereo not drawn) is 3.79%; for `CCNC(C)(C)CN(Cc1ccc(-c2ccc(C(F)(F)F)cc2)cc1)C(=O)Cn1c(CCc2cccc(F)c2F)nc(=O)c2ccccc21` it is 6.94%; for `O=C(NCCCCN1CCC(c2ccc3c(c2OCCOCCO)CCCC3)CC1)c1ccc(-c2ccc(C(F)(F)F)cc2)cc1` it is 7.96%. `NS(=O)(=O)NCCCN1CCN(c2ccccc2)CC1` yielded an IFI of -0%. The figure for `O=C(Nc1ccc(C(=O)OCC(c2ccccc2)c2ccccc2)cc1)N[C@@H](Cc1ccc(O)cc1)C(=O)NC1CCN(Cc2ccc(O)cc2)C1` (stereo partly drawn) is 9.4%. On to `COc1ccc(Nc2ncc3c(-c4cccc(NC(=O)Cc5ccncc5)c4)c[nH]c3n2)cc1OC`, for which the IFI was found to be 5.71%. For `COc1ccc(C2CC(=O)C3=C(C2)NC(C)=C(C(=O)OC(C)C)C3c2c(F)cccc2Cl)cc1OC` (stereo not drawn), the IFI was 0.83%. As to `CNC(=O)C1Cc2c([nH]c3ccc(Br)cc23)C2(CCN(CCc3ccccc3)CC2)N1` (stereo not drawn), the IFI was 6.57%. The figure for `COc1ccc2nccc([C@@H](O)CN3CCC(NC(=O)c4ccc5cc[nH]c5c4)CC3)c2c1` is 2.24%; for `CCCC(CNCc1cccc(SC(F)(F)F)c1)CNc1cc(=O)c2ccccc2[nH]1` (stereo not drawn) it is 1.45%; for `Cc1ccc(Cn2cnc(N3CC(C)NC(C)C3)cc2=O)cc1NC(=O)Nc1ccc(-c2ccccc2)cc1` (stereo not drawn) it is 3.6%. The figure for `CS(=O)(=O)c1cccc(-c2ccc3oc(C(N)=O)c(NC(=O)c4cccs4)c3c2)c1` is 8.65%; for `COc1cc(NCCCNC(=O)c2ccc(Cl)c(Cl)c2)nc2ccccc12` it is 12.5%; for `COc1ccc(C(=O)C2CCN(CCCCNC(=O)c3ccc(NC(=O)c4cc(Cl)cc(Cl)c4)cc3)CC2)cc1` it is 10.5%. In turn, `CC(C)n1c(CC2CCN(CC3CCN(C(=O)/C=C/c4ccc(Cl)c(Cl)c4)CC3)CC2)nc2ccccc21` yielded an IFI of 3.65%. The figure for `CCN(CCCN1CCCCC1)c1cc(C)nc(Nc2ccc(Cl)cc2)n1` is 4.86%; for `CC(C)Cc1nc(N2CCOCC2)c2nnn(Cc3ccccc3)c2n1` it is 1.75%. The figure for `COC(=O)C1(NC(=O)c2ccc(-n3nc(C)c(-c4ccccc4)c3N)cc2)CCCC1` is 1.41%; for `CNC(=O)NC1=NC(C)(C)N(OCc2ccc(Cl)c(Cl)c2)C(NC(=O)NC)=N1` it is 0.72%; for `O=C(NC1CC1)c1ccc(N2CCC(COc3cccc(F)c3)CC2)nc1` it is 6.12%. On to `OC(c1cccc2ccccc12)C1CN(CCc2ccccc2)CCC1(O)c1ccccc1` (stereo not drawn), for which the IFI is 1.69%.

`CC1(C)N=C(N)N=C(N)N1c1cccc(I)c1` returned an IFI of 0.68%. The figure for `O=C(c1ccc(-c2ccc(-c3nc4cc(F)ccc4[nH]3)cc2)cc1)N1CCCCC1CN1CCC(O)C1` (stereo not drawn) is 3.54%. `CC(=O)c1cccc(Nc2nc3ccc(OCc4cc(Cl)cc(Cl)c4)c(C#N)c3[nH]2)c1` displayed an IFI of 1.61%. The figure for `O=C(Nc1ccc(-c2cccc(-c3nc4cc(F)ccc4[nH]3)c2)cc1)Nc1ccc(Cl)c(Cl)c1` is 8.08%; for `Cc1noc(C)c1-c1cccc(CNCc2ccc(-c3ccc(-c4nc5ccccc5[nH]4)s3)cc2)c1` it is 8.82%; for `c1ccc(CNc2cc(-c3ccccn3)nc(-c3ccccn3)n2)cc1` it is 15.5%.

For `Cc1cc(NC(=O)Nc2ccc3nccc(N4CCN(C)CC4)c3c2)ccc1Br`, the IFI was determined as 3.68%. The figure for `COc1cccc(-c2cnc(N)c(-c3nc4ccc(C(F)(F)F)cc4[nH]3)c2)c1` is 3.77%; for `CN(C)CCCNCc1ccc(-c2ccc(C(F)(F)F)cc2)cc1` it is 3.6%; for `Cc1nc(N)nc(N)c1CCCOc1cccc(Cl)c1` it is 0.73%.

`COc1ccc(-c2nonc2NC(=O)c2ccc(C(C)(C)C)cc2)cc1OC`: the IFI worked out at 3%. The compound `Cc1cc2c(NC(=O)NC3CCN(CCc4cccc(Cl)c4)CC3)cccc2cn1` registered an IFI of 2.19%. The figure for `CCN(CC)CCN(Cc1ccc(-c2ccc(C(F)(F)F)cc2)cc1)C(=O)Cn1c(CCc2cccc(F)c2F)nc(=O)c2ccc(C)cc21` is 7.14%; for `COc1ccc2ccc(F)c(CCN3CCC(NCc4cc5c(cn4)OCCO5)CC3)c2n1` it is 1.96%; for `COc1cc(C(=O)Nc2cccc(-c3nc4ccccc4[nH]3)c2)ccc1OC(C)=O` it is 2.84%. The figure for `CCCCCCCN(Cc1ccc(OC(C)(C)C(=O)OCC)cc1)C(=O)Nc1ccc(Cl)cc1OCC` is -0%; for `NC(=O)c1ccc(NC(=O)CN(Cc2ccc(Cl)cc2)S(=O)(=O)c2ccccc2)cc1` it is 0.93%; for `CN1CCCC(CN2CCN(Cc3cccc(-c4ccc(-c5nc6ccccc6[nH]5)cc4)c3)CC2)C1` (stereo not drawn) it is 7.04%. In the case of `O=C(NCc1ccc(Cl)c(Cl)c1)c1ccc(-c2nc3ccc(F)cc3[nH]2)cc1`, the IFI is -0%.

In turn, `CCOC(=O)c1cccc(NC(=N)Nc2nc(C)cc(NCCc3ccccc3)n2)c1` gave an IFI of 5.52%. As to `Cn1nc(-c2ccc(CNC3CCc4ccccc43)cc2)c2cnc(NCCN3CCCC3)nc21` (stereo not drawn), the IFI amounted to 3.85%. `O=C(Nc1cccc(CN2CCCN(Cc3ccc(F)cc3)CC2)c1)c1cc2ccccc2s1`: the IFI came out at 4.58%. The figure for `COc1cc(OC)c(OC)cc1C=NN=c1cc(C)[nH]c2ccccc12` is 2.11%; for `O=S(=O)(c1cc(Cl)ccc1Cl)N1CCCCC(c2ccc(C(F)(F)F)cc2)=N1` it is 0%; for `Oc1ccc(CCNc2nc(NCc3ccccc3-c3ccc(C(F)(F)F)cc3)nc(N3CCCNCC3)n2)cc1` it is 14.9%.

`O=C(CCCCCNC(=O)c1ccc(O)c(-c2ccc(Cl)c(Cl)c2)c1)NCCN1CCCC1`: the IFI was found to be 0.74%. The figure for `CC(C)CCNC(=O)C1Cc2c([nH]c3cc(Br)ccc23)C2(CCN(Cc3ccccc3)CC2)N1` (stereo not drawn) is 2.17%; for `COc1ccccc1C1CCN(C2CCC(NC(=O)/C=C/c3cccc(C(F)(F)F)c3)CC2)CC1` (stereo not drawn) it is 15.4%; for `COc1ccccc1C1CC(c2ccc(Br)cc2)=NN1C(=O)c1ccccc1` (stereo not drawn) it is 2%. The compound `COc1cc(NCCCCNc2ccc(Cl)c(Cl)c2)nc2ccccc12` gave an IFI of 26.5%.

In turn, `COc1ccc(Br)cc1/C=C/C(=O)Nc1ccc(C2CCN(C)CC2)cc1` had an IFI of 3.45%. The figure for `COc1ccc2nc3cc(Cl)ccc3c(NCCCN3CCNCC3)c2c1` is 4.44%; for `CC(CCc1ccccc1)NCC(O)c1cccc(C(F)(F)F)c1` (stereo not drawn) it is 2.82%; for `CCOc1ccc2[nH]c(C)cc(=NN=Cc3ccccc3F)c2c1` it is 1.52%. The figure for `CCOc1cc(O)c(-c2nc(N)ncc2-c2ccc3c(c2)OCCO3)cc1CC` is 4.23%; for `Cc1ccc(O)c(Nc2c3c(c(C#N)c4nc5ccccc5n24)CCC3)c1` it is 2.99%; for `CCCCCCNCCOc1ccc(-c2nc(-c3ccccc3)c(-c3ccccc3)[nH]2)cc1` it is 8.57%. Compound `O=C(/C=C/c1ccc(Cl)c(Cl)c1)NCCCCCN1CCCN(C(=O)Nc2cccc(Cl)c2)CC1` gave an IFI of 5.37%. Take `CC(=O)Nc1cccc(C(=O)Nc2cccc(-c3ccc(-c4nc5cc(F)ccc5[nH]4)cc3)c2)c1`: the IFI turned out to be 5.26%. The figure for `COc1ccc2cc(-c3nc(-c4c(Cl)cccc4Cl)[nH]c3-c3ccnc(NCCCN4CCN(C)CC4)c3)ccc2c1` is 7.14%; for `CC(C)CNCc1ccc(-c2cccc(CN(CCCN3CCN(C)CC3)C(=O)/C=C/c3ccccc3)c2)cc1` it is 8.09%; for `Cc1cccc2nc(-c3cccc(-c4cccc(C(=O)NCc5nccn5C)c4)c3)[nH]c12` it is 2.75%. The figure for `CCCCCN1CCCN(Cc2cccc(NC(=O)c3cc4ccccc4s3)c2)CC1` is 6.82%; for `O=C(Nc1ccc(Cn2nc(Cl)c(N3CCCNCC3)cc2=O)cc1)c1ccc(-c2ccccc2)cc1` it is 10.2%; for `Cc1ccc(Nc2nc(NN=Cc3ccc(-c4ccc([N+](=O)[O-])cc4)o3)nc(N3CCOCC3)n2)cc1Cl` it is 0.75%. The figure for `CO/C(=C\C=C\c1cc2cc(Cl)c(Cl)cc2[nH]1)C(=O)NCCCN1CCN(C2CCCCC2)CC1` is 11.5%; for `Cc1cccc(CNc2nc(C)cc(N[C@@H](Cc3ccccc3)C(=O)NCCc3ccccc3)n2)c1` it is 14.3%. In turn, `CCCCCCCCN1CCN(CCCCCCNc2c3ccccc3nc3ccccc23)CC1` registered an IFI of 13.5%. For `COc1cc(C2=NN(S(=O)(=O)c3c(Cl)cc(Cl)cc3Cl)CCCC2)ccc1Cl`, the IFI is 2.16%. With `CCCCCCCCCCN1C(=O)C2C(CCCCNC(C)=O)NC3(C(=O)N(Cc4ccc(C(C)(C)C)cc4)c4ccccc43)C2C1=O` (stereo not drawn), the IFI is 2.19%. The figure for `COc1ccc2c(c1)[nH]c1c(C=Cc3ccccc3)nccc12` is 1.45%.
